Results published in PubChem BioAssay (NCATS).
“And” between values parts separate entries of the source, which are not always exact repeats. Identical values can stand only once. The shares of active, inactive and inconclusive entries below differ from those in the screen. For some assays here: Potencies of inconclusive entries are left out as doubtful fits. For some assays here: A note “side channel” means that the fit belongs to a control or component signal, not to the main read-out. The source made the active and inactive calls. Unless noted, calls follow the shape of the dose curve; as a rule, active = well fitted curve in the direction sought with a large enough effect; inconclusive = small, poorly fitted or top-dose-only effect, or another doubt; inactive = no such curve, though single readings can be large; an effect the other way counts as inactive or inconclusive.

Key:
[1] = Cell Viability - Hek293 (AID 427;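 active = compounds whose dose-response curve shows a full or clear partial loss of cell viability, called from curve shape rather than a numeric limit; inconclusive = weak partial curves or an effect only at the top dose; inactive = no dose-dependent loss of viability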;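 also: potency is read from the fitted curve at half-maximal effect; cells exposed to compound for 40 hours at 37 °C before reading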); conditions: qHTS
Outline: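 Luminescent ATP read-out (CellTiter-Glo, 20 min RT) after 40 hr compound exposure at 37 °C in complete medium. Signal normalized to DMSO (basal) and 100 uM tamoxifen (100% inhibition); concentration-response fitted with the standard Hill equation to give AC50.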

[2] = Cell Viability - H-4-II-E (AID 543); conditions: H-4-II-E rat hepatoma viability; series mostly up to 92.2 µM;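 also: potency is read from the fitted curve at half-maximal effect; cells exposed to compound for 40 hours; nearly all actives have a fitted effect of over 35% in size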
Outline: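 qHTS, rat hepatoma H-4-II-E, 1500 cells/well; 40 hr compound exposure, 37 °C; CellTiter-Glo ATP luminescence after 20 min RT; AC50 by standard Hill fit.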

[3] = Cell Viability - Renal Proximal Tubule (AID 545); conditions: renal proximal tubule cells viability, primary cells of rat origin; activity change, negative = cytotoxicity: at 91.7 µM (top of the series);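 also: potency is read from the fitted curve at half-maximal effect; cells exposed to compound for 40 hours; nearly all actives have a fitted effect of over 40% in size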
Outline: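 Primary rat renal proximal tubule cells (1000/well) were treated with compounds for 40 hr at 37 °C in complete medium. Intracellular ATP was measured by CellTiter-Glo luminescence, and AC50 values came from Hill-equation fits of concentration-response data.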

[4] = Cell Viability - Mesenchymal (AID 546); conditions: mesenchymal cells viability, qHTS; activity change, negative = cytotoxicity: at 91.7 µM (top of the series);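 also: potency is read from the fitted curve at half-maximal effect; cells exposed to compound for 40 hours before reading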
Outline: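 Human renal mesenchymal cells (glomerulus-derived), 1000 cells/well, 5 hr 37 °C pre-incubation; compound 40 hr, 37 °C; CellTiter-Glo, 20 min RT; luminescence; AC50 via Hill equation.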

[5] = Cellular Toxicity (caspase-3) H-4-II-E (AID 663); conditions: H-4-II-E rat hepatoma; Potency: caspase-3 activation; caspase-3 activation: at 92.2 µM (top of the series), scaled: DMSO 0%, 100 µM tamoxifen 100%;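 also: cells exposed to compound for 16 hr before readout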
Outline: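 H-4-II-E rat hepatoma, 1500 cells/well, 5 hr settle at 37 °C; compound 16 hr, 37 °C, complete medium; Caspase-Glo 3/7, 20 min RT; luminescence. DMSO = 0%, 100 uM tamoxifen = 100%; Hill-equation AC50.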

[6] = Cellular Toxicity (caspase-3) Hek293 (AID 664); conditions: HEK293 caspase-3 activation, DMSO = 0%, 100 µM tamoxifen = 100%; at 92.2 µM (top of the series);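 also: cells exposed to compound for 16 h at 37 °C before readout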
Outline: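 Luminescent Caspase-Glo 3/7 readout (aminoluciferin release) in HEK293 cells after 16 h compound treatment, 37 °C. Normalization: DMSO = basal, 100 uM tamoxifen = 100% stimulation. Concentration-response fitted with standard Hill equation for AC50.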

[7] = MultiTox-Fluor Cytotoxicity Assay - LYMP1-001 - Live Cells (AID 947); conditions: LYMP1-001 lymphoblastoid cells, live-cell protease fluorescence viability; series mostly up to 92.2 µM; also: potency is read from the fitted curve at half-maximal effect
[8] = MultiTox-Fluor Cytotoxicity Assay - LYMP1-002 - Dead Cells (AID 960); conditions: LYMP1-002 lymphoblastoid cells, dead-cell protease fluorescence; cytotoxicity (dead cells): at 46.1 µM (top of the series); also: potency is read from the fitted curve at half-maximal effect; nearly all actives have a fitted effect of over 60% in size
Outline: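 Readout: fluorescence at 485/520 from cell-impermeant bis-AAF-R110 cleaved by proteases leaking from damaged cells. LYMP1-002 lymphoblastoid line, 16 hr compound treatment at 37 C, concentration-response in qHTS format; Hill-equation AC50 values.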

[9] = MultiTox-Fluor Cytotoxicity Assay - LYMP1-003 - Live Cells (AID 962); conditions: LYMP1-003 lymphoblastoid cells, MultiTox-Fluor live-cell protease fluorescence; series mostly up to 92.2 µM;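 also: potency is read from the fitted curve at half-maximal effect; cells exposed to compound for 16 hours at 37 °C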
Outline: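 Readout: live-cell fluorescence (Ex/Em=405/510) from GF-AFC cleavage after 60 min MultiTox-Fluor reagent at room temperature. Lymphoblastoid LYMP1-003 cells, 16 hr compound treatment, 37 C. Concentration-response fitted to standard Hill equation for AC50.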

[10] = Cell Viability - LYMP1-003 - Assay at 40 hr (AID 964); conditions: LYMP1-003 lymphoblastoid viability; series mostly up to 92.2 µM; also: potency is read from the fitted curve at half-maximal effect; nearly all actives have a fitted effect of over 60% in size
Outline: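 LYMP1-003 lymphoblastoid cells, 2500/well; 5 hr preincubation, 40 hr compound exposure, 37 C; CellTiter-Glo 30 min RT; luminescence; Hill-fit AC50. Positive control tetraoctylammonium bromide.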

[11] = Cell Viability - LYMP2-005 (AID 967); conditions: LYMP2-005 lymphoblastoid cell viability; series mostly up to 92.2 µM; also: potency is read from the fitted curve at half-maximal effect
Outline: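 CellTiter-Glo luminescence (cellular ATP) read-out; LYMP2-005 lymphoblastoid cells, 2500/well, 5 h pre-incubation, then 24 h compound exposure at 37 C in complete medium. Tetraoctylammonium bromide positive control; AC50 by standard Hill fit.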

[12] = Cell Viability - LYMP2-019 (AID 973); conditions: LYMP2-019 lymphoblastoid cell line viability; series mostly up to 92.2 µM; also: potency is read from the fitted curve at half-maximal effect; nearly all actives have a fitted effect of over 55% in size
Outline: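 qHTS, 1536-well; 2500 cells/well; 5 hr pre-incubation, 24 hr compound exposure, 37 C; CellTiter-Glo added, 30 min RT; luminescence read; AC50 via standard Hill equation.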

[13] = Cell Viability - LYMP2-025 (AID 976); conditions: LYMP2-025 lymphoblastoid cell viability; activity change, negative = cytotoxicity: at 92.2 µM (top of the series); also: potency is read from the fitted curve at half-maximal effect
Outline: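 CellTiter-Glo luminescence (cellular ATP) after 24 h compound exposure at 37 C; LYMP2-025 human lymphoblastoid cells, 2500/well, complete medium. Tetraoctylammonium bromide positive control. AC50 by Hill equation fit of qHTS concentration-response.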

[14] = Cell Viability - LYMP2-002 (AID 977); conditions: LYMP2-002 lymphoblastoid cell viability, qHTS; activity change, negative = cytotoxic: at 92.2 µM (top of the series); also: potency is read from the fitted curve at half-maximal effect
Outline: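 Human lymphoblastoid cells, 2500/well, complete medium; 5 h 37 C settle; compound 24 h 37 C; CellTiter-Glo, 30 min RT; luminescence. Decrease in ATP = cytotoxicity; AC50 via Hill equation.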

[15] = Cell Viability - LYMP2-014 (AID 983); conditions: LYMP2-014 lymphoblastoid cells, viability qHTS; series mostly up to 92.2 µM; also: potency is read from the fitted curve at half-maximal effect; nearly all actives have a fitted effect of over 50% in size
Outline: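 2500 cells/well, 5 hr 37 C; cpd 24 hr 37 C, complete medium; CellTiter-Glo 30 min RT, luminescence; ATP loss = toxicity; AC50 via Hill eqn; tetraoctylammonium bromide positive control.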

[16] = Cell Viability - LYMP2-024 (AID 988); conditions: LYMP2-024 lymphoblastoid cell viability; activity change, negative = cytotoxicity: at 92.2 µM (top of the series); also: potency is read from the fitted curve at half-maximal effect; nearly all actives have a fitted effect of over 60% in size
Outline: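 ATP-based luminescence (CellTiter-Glo, 30 min RT) after 24 h compound exposure at 37 C of 2500 lymphoblastoid cells/well; decrease in ATP taken as cytotoxicity. qHTS concentration-response fitted to standard Hill equation for AC50.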

[17] = qHTS Assay for Identification of Small Molecule Inducers of Hypoxia Response (AID 2120; active = well fitted curve in the direction sought with a large enough effect in the signal ratio, with a control signal flat, not every such curve was filed as active; inconclusive = small, poorly fitted or top-dose-only effect, or a change in a side signal; inactive = no such curve, though single readings can be large or run the other way; the % refers to the signal ratio; also: potency is read from the fitted curve at half-maximal effect); conditions: hypoxia response reporter cells, beta-lactamase ratio readout; activation: at 104 µM (top of the series)
Outline: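 Read-out: CCF4 FRET emission ratio 460nm/530nm (excitation 405nm), converted to %Activity, with AC50 fitted across a compound titration. ME-180 cells carried an HRE-driven beta-lactamase reporter; compound exposure 17 h, 37 degrees C.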

[18] = target: Androgen receptor (Homo sapiens) (UniProt P10275); experiment: qHTS assay for small molecule agonists of androgen receptor signaling (AID 588515; active = well fitted curve in the direction sought with a large enough effect in the signal ratio, with a control signal flat; inconclusive = small, poorly fitted or top-dose-only effect, or effect the other way, or a change in a side signal; inactive = no such curve, though single readings can be large or run the other way; the % refers to the signal ratio; also: potency is read from the fitted curve at half-maximal effect; as to activation: % is scaled to controls: 0 for no effect and ±100 for the full control effect); conditions: AR-UAS-bla HEK293, beta-lactamase ratio, agonist 16 h; activation: active compounds read high
Chain of UniProt P10275 (P10275 whole entry, looked up): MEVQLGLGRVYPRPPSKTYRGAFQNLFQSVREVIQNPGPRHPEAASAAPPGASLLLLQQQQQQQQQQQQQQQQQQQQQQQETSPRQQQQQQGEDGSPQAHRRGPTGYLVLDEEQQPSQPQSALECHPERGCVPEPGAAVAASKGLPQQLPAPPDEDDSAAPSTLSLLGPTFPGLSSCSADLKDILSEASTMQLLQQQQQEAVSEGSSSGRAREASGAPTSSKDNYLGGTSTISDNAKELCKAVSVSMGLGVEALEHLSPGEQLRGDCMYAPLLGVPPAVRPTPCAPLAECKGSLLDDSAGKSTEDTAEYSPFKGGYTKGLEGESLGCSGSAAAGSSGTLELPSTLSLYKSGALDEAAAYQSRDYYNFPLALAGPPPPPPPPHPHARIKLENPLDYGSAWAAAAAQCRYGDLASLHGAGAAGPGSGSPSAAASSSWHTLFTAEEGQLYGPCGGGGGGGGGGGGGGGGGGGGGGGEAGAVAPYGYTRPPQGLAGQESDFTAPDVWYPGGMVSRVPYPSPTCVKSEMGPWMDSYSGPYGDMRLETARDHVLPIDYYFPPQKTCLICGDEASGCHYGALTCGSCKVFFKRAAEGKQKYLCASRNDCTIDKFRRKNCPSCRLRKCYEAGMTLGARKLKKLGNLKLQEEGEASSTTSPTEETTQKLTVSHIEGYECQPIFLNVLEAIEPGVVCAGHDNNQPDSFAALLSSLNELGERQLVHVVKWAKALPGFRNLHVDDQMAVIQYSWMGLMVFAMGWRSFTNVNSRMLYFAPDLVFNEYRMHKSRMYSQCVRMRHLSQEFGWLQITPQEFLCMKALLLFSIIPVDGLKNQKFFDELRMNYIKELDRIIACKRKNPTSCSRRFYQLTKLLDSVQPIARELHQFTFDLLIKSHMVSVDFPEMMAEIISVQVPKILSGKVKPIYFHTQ
Outline: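 Stimulation of an AR-responsive β-lactamase reporter in GripTite HEK293 cells was measured after 16 h compound exposure at 37 °C, via CCF4 fluorescence after 2 h RT. EC50 from Hill fits, normalized to R1881 at 30 nM.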

[19] = target: Androgen receptor (Homo sapiens) (UniProt P10275); experiment: qHTS assay for small molecule antagonists of androgen receptor signaling (AID 588516; active = well fitted curve in the direction sought with a large enough effect in the signal ratio, with a control signal flat, not every such curve was filed as active; inconclusive = small, poorly fitted or top-dose-only effect, or effect the other way, or a change in a side signal; inactive = no such curve, though single readings can be large or run the other way; the % refers to the signal ratio; also: % is scaled to controls: 0 for no effect and ±100 for the full control effect); conditions: AR-UAS-bla HEK293, beta-lactamase ratio, antagonist mode, 16 h; activity change, negative = inhibition: at 76.8 µM (top of the series)
Outline: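 Antagonist mode: inhibition of R1881-stimulated (10 nM final) bla reporter in GeneBLAzer AR HEK 293 cells, 16 h at 37C, compounds titrated. IC50 and efficacy from Hill-equation fits of 405/460–530 nm FRET ratios.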
Tags tell the direction and shape of the fitted curve.

SMILES: CC(=O)Nc1ccc(C(=O)CCl)cc1
- Potency [1]: active: 37.9 µM
- Potency [2]: active: 10 µM
- Potency [3]: active: 31.6 µM
- Potency [4]: active: 12.6 µM
- caspase-3 activation [5]: inconclusive: -4.85%
- caspase-3 activation [6]: inconclusive: -9.67%
- Potency [7]: active: 20 µM
- Potency [8]: active: 15.8 µM
- Potency [9]: active: 31.6 µM
- Potency [10]: active: 39.8 µM
- Potency [11]: inconclusive [cytotoxic, full curve, poor fit]
- Potency [12]: active: 5.01 µM
- Potency [13]: active: 10 µM
- Potency [14]: active: 7.94 µM
- Potency [15]: active: 7.94 µM
- Potency [16]: active: 3.16 µM
- Potency [17]: inconclusive [side channel, falling, full curve]
- Potency [18]: inconclusive [side channel, rising, partial curve, poor fit]
- activation [18]: inconclusive: -43.7%
- activity change, negative = inhibition [19]: inconclusive: -172% and inconclusive: -142%
